Data as given in publication PMC7819943, “Rice protein-binding microarrays: a tool to detect cis-acting elements near promoter regions in rice”.
The list shows a part of the results.

Each sequence was assayed against T1, OsWOX13 (Oryza sativa, UniProt Q5QMM3 1-267) (assay: protein-binding microarray (RPBM); PBS, 2% BSA, 51.3 ng/ul salmon testes DNA, 50 uM zinc acetate, 200 nM TF, 25 C, 1 h; high values mean tight binding). Details: protein: recombinant; tags: N-terminal polyhistidine and DsRed monomer fusion (pET32a); label: CyDye5-dUTP incorporated in the synthesized complementary strand; 3' TTTTT single-stranded linker to array surface; dsDNA, one strand shown.
T1 sequence: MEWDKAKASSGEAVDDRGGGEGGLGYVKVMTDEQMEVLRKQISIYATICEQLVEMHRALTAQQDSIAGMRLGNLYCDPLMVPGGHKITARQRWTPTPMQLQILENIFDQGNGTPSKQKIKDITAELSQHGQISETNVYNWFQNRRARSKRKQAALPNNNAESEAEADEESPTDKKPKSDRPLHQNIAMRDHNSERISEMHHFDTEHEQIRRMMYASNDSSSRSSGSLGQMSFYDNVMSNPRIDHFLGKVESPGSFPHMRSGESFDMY
Procedure, shortened: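 Per-feature fluorescence intensity (arbitrary units), read on an Axon 4000B scanner, is the binding signal. Transcription factors carrying an N-terminal polyhistidine tag and DsRed fusion were expressed in E. coli BL21-CodonPlus and purified on Ni–NTA. A custom Agilent array, made double-stranded by primer extension with Cy5-dUTP and blocked with 2% BSA, was incubated with 200 nM protein in PBS, 2% BSA, salmon testes DNA and 50 µM zinc acetate at 25 °C for 1 h and then washed.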

Compared with “CCCTTTTAATTTCCTGTAAACCAGTCCAGCCCAATAGGTACGGAGTCACCTAGTGCAG”, “GTCTTAACATAATAAATACCACAGTCTAGCTTTTATGATACGGAGTCACCTAGTGCAG” is lower in binding signal: 7920 fluorescence intensity (a.u.) for the first, 3300 fluorescence intensity (a.u.) for the second.

Going from “TTTGATTGTCTGGGCTATTAAATAGTCCTTCACAATCTTGCGGAGTCACCTAGTGCAG” to “TTATAATATAATATTTTGATAATTTTATCCAAATTTTGGACGGAGTCACCTAGTGCAG”, the binding signal falls from 42400 fluorescence intensity (a.u.) to 4490 fluorescence intensity (a.u.).

Going from “AGTAAGGGGAGATGATTGATTGCGCTATCGATCTCCCACCCGGAGTCACCTAGTGCAG” to “ATATGAAATTTAAAATTAGTTATTAGCAAGATGCAGTTACCGGAGTCACCTAGTGCAG”, the binding signal falls from 40400 fluorescence intensity (a.u.) to 4430 fluorescence intensity (a.u.).

First: TAACAAAACAAATTACAGATTCTGTCTGTAAACTGCGAGACGGAGTCACCTAGTGCAG
Second: TTGTAAATGACTGATTTGGATGTGAATTAATCGTTGTTGTCGGAGTCACCTAGTGCAG
The binding signal of the first is lower: 4160 fluorescence intensity (a.u.) for the first, 28400 fluorescence intensity (a.u.) for the second.

Compared with “TTCAGTCAATCCACACTGTAATCCCCATTGCTAGTATCTCCGGAGTCACCTAGTGCAG”, “TCTAAGATTGAATTGCACTTTGACTATCTTTCATTATCAACGGAGTCACCTAGTGCAG” is higher in binding signal: 4410 fluorescence intensity (a.u.) for the first, 35100 fluorescence intensity (a.u.) for the second.

First: GATAATGATTGGGCTTCTAAATAATGGGTAAGACTTGTCTCGGAGTCACCTAGTGCAG
Second: TTAACAATGATGATTTATCTCTTATGTATTTGTATAATTTCGGAGTCACCTAGTGCAG
The binding signal of the first is higher: 35000 fluorescence intensity (a.u.) for the first, 6330 fluorescence intensity (a.u.) for the second.

Compared with “GTTTAATTTCCTAATTTTGCTCAGGTCTACAACTCTAAATCGGAGTCACCTAGTGCAG”, “CCCAAGACTGATATGGATGAAATATACGATCATGCCATATCGGAGTCACCTAGTGCAG” is lower in binding signal: 18000 fluorescence intensity (a.u.) for the first, 3360 fluorescence intensity (a.u.) for the second.

Compared with “ATTTACATTAATTTATTAGGGTTTTATTTTGCTCTTACACCGGAGTCACCTAGTGCAG”, “GAACTTTACCGAATTTGTAAATTAGATGTAAACTCATTTTCGGAGTCACCTAGTGCAG” is lower in binding signal: 13000 fluorescence intensity (a.u.) for the first, 3580 fluorescence intensity (a.u.) for the second.

First: ATCTTGATTGATGTTATTTAAATTATCTTGGTGTTGGTGCCGGAGTCACCTAGTGCAG
Second: ATACACAATTGATTAATGGAGCCATCTATTAACACCAGCCCGGAGTCACCTAGTGCAG
The binding signal of the first is higher: 48800 fluorescence intensity (a.u.) for the first, 32100 fluorescence intensity (a.u.) for the second.

Going from “TGTGATTGACACCAACATATACTCGATTCCAACAATCCAACGGAGTCACCTAGTGCAG” to “TGCTAATGTTGATTACATTCACCACTATCACTGGATCAAACGGAGTCACCTAGTGCAG”, the binding signal falls from 44300 fluorescence intensity (a.u.) to 9420 fluorescence intensity (a.u.).

First: TACATAATTAACCTTTGGTATCACCTGTCATACACACATGCGGAGTCACCTAGTGCAG
Second: TGACATAAACTGAATTTCATCCATCATCCACCAGCACTCGCGGAGTCACCTAGTGCAG
The binding signal of the first is higher: 17500 fluorescence intensity (a.u.) for the first, 3460 fluorescence intensity (a.u.) for the second.

“ATTTAATTGTTACGAATACAATGGTGTAATCGGATCATAGCGGAGTCACCTAGTGCAG” was tested, and the binding signal was 24400 fluorescence intensity (a.u.).
